Experimental findings from PubChem BioAssay AID488969 (Vanderbilt High Throughput Screening Facility, 2010) are described below.

SMILES strings stand for the structures. Whole data set: some 110,000 compounds, median “z-score” near -0.1, cut for the highest 2% near 2. The list shows a part of the results.

The assay deals with Metabotropic glutamate receptor 8 (Rattus norvegicus) (UniProt P70579). In words: rat mGluR8 modulators via GIRK flux, primary screen, cell-based, thallium flux, HTS (AID 488969). As to conditions: HEK293 rat mGluR8, GIRK (G protein-gated inwardly rectifying potassium channel) thallium flux, FluoZin2; at 10 µM; stronger effect = higher value; submaximal glutamate (EC20) added with thallium.
Sequence of UniProt P70579 (P70579 whole entry, looked up): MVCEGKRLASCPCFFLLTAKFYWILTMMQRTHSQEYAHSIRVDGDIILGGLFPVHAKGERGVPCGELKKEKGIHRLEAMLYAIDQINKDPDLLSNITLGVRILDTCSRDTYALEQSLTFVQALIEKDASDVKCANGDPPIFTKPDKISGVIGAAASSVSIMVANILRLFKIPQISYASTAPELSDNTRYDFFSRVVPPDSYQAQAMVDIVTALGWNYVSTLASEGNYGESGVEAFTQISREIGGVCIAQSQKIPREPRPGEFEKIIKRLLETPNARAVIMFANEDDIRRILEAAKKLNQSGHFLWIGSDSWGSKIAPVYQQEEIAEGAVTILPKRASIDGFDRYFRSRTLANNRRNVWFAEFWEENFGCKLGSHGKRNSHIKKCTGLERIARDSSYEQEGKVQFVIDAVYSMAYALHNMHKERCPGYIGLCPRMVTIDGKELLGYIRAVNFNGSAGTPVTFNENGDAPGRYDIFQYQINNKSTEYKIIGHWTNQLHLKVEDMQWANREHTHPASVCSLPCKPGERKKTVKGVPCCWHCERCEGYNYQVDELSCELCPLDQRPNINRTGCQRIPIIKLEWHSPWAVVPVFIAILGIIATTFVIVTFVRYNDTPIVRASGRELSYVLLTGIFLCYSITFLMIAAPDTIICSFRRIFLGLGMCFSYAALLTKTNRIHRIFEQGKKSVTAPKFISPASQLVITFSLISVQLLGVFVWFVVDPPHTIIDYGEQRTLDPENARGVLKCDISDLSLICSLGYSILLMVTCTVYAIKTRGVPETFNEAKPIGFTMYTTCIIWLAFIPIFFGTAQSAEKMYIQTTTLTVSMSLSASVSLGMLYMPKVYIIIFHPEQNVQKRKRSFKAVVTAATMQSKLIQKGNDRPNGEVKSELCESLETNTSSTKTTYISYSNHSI
Turning to `CC[n+]1c(/C=C(/C)SC)sc2ccccc21`, the z-score is -0.18.
For the compound `Cc1cccc(NC(=O)CN2C(=O)NC(C)(c3ccc4c(c3)OCO4)C2=O)c1` (stereo not given), the z-score is -0.436.
Regarding `CCOc1cc(/C=C2\CCC/C(=C\c3cc(Cl)c(O)c(OCC)c3)C2=O)cc(Cl)c1O`, the z-score was determined as 1.62.
Take `O=C(C[n+]1cc(-c2ccccc2)n2c1CCC2)Nc1nc(-c2ccccc2)cs1`: the z-score is -0.72.
With `O=C(OCC(=O)N(Cc1ccccc1)C1CCS(=O)(=O)C1)c1cc2c(s1)CCCC2` (stereo not given), the z-score is -0.557.
The figure for `CCCS(=O)(=O)c1c(S(=O)(=O)CCC)c2c(C)cccn2c1C(=O)OC` is -0.0581; for `Cc1cccc(-n2c(SCN3C(=O)c4ccccc4C3=O)nc3ccccc3c2=O)c1` it is 0.48.
The figure for `CC1(C)CC1C(=O)Nc1ccc([N+](=O)[O-])cc1Br` (stereo not given) is -0.538.
`CCCCN(CC(=O)Nc1c(C)cccc1CC)C(=O)SCC`: the z-score is -1.1.
For `COc1cccc(OCC(O)CN2CCN(c3ncccn3)CC2)c1` (stereo not given), the z-score was -0.278.
Compound `OCCN1CN=C(Nc2nc3ccccc3o2)NC1` came in with a z-score of 0.00528.
As to `CCn1c(SCC(=O)c2[nH]c(C)c(C(C)=O)c2C)nnc1-c1cccs1`, the z-score turned out to be 0.574.
As to `Cc1cc(C(=O)NCC(=O)OCC(=O)Nc2ccc(OC(F)F)cc2)ccc1[N+](=O)[O-]`, the z-score was -0.413.
With `Cc1ccc(C)c2nc3sc(C(=O)N4CCCc5ccccc54)c(N)c3cc12`, the z-score is -0.134.
Turning to `Cc1ccc(-n2cnc(=O)c3cccnc32)cc1`, the z-score was -0.0637.
As to `Nc1nc(CSc2nnnn2-c2ccc(F)c(Cl)c2)nc(N2CCOCC2)n1`, the z-score was -0.379.
With `CCCCN(C)C(=O)c1coc(=O)c2ccccc12`, the z-score was -0.19.
For `O=C(Cc1coc2ccc3ccccc3c12)NCc1ccccc1`, the z-score was 0.0512.
On to `CCCc1cc(=O)[nH]c(SCC(=O)NC(=O)OCC)n1`, for which the z-score was -0.0127.
The figure for `COC(=O)c1ccccc1NC(=O)CN1C(=O)C2CCCN2c2ncc(Cl)cc21` (stereo not given) is -0.322; for `CC1CCN(C(=O)c2cc(F)c(F)cc2Cl)CC1` it is 0.568; for `Cc1n[nH]c(C)c1S(=O)(=O)N(CC(=O)Nc1ccc2c(c1)OCCO2)c1ccc(C(C)C)cc1` it is -0.193.
As for `Cc1cccc(Oc2nc(-c3ccccc3)cc(C)c2S(C)(=O)=O)c1C`, the z-score turned out to be 0.102.
In the case of `COc1ccc(C(=O)c2c[nH]c(C(=O)NCc3ccco3)c2)cc1`, the z-score is -0.236.
The figure for `Cc1cc(Cl)ccc1OCC(=O)NC1CCCC1` is 0.0341; for `COCCCNc1c2c3c(cccc3[nH]c1=O)C(=O)c1ccccc1-2` it is -1.46; for `COc1cc2[nH]cc(C(=O)NCCc3ccccc3)c(=O)c2cc1OC` it is -1.47.
The compound `Cc1ccc(S(=O)(=O)NCCC(=O)N2CCCCC2)cc1` came in with a z-score of 0.0206.
The same measure for `COC(=O)CSc1nc2ccc(C)cc2[nH]1`: -0.156.
The figure for `COc1ccc(OCC(O)CN(C2CCCCC2)C2CCCCC2)cc1` (stereo not given) is 0.744.
`O=C(NCCn1cccc1)c1cccc2ccccc12` registered a z-score of 0.0293.
The figure for `c1ccc(Cn2nnnc2C(c2cccs2)N2CCCCCC2)cc1` (stereo not given) is 0.764; for `COc1ccc2c(c1OC)C(=O)N1N=C(c3ccc(Cl)cc3)CC21` (stereo not given) it is -0.308.
Take `Cn1ncc([N+](=O)[O-])c1C(=O)N1CCOCC1`: the z-score was 0.104.
The same measure for `CC(C)CC(C(=O)Oc1ccc2c3c(c(=O)oc2c1)CCC3)N1C(=O)c2ccccc2C1=O` (stereo not given): -0.621.
The figure for `COc1cccc(C2C(C(=O)OC(C)C)=C(C)Nc3ncnn32)c1` (stereo not given) is 0.0834; for `O=C(Nc1ccc2c(c1)OCO2)N1CCN(c2ccccc2Cl)CC1` it is -0.291.
As to `CC1CN(C(=O)c2ccc3c(c2)OCO3)CC(C)O1` (stereo not given), the z-score was -0.138.
In turn, `COc1ccc(-c2c(C)n([O-])c3c([n+]2=O)CCC3)cc1OC` had a z-score of 0.576.
Take `Cc1ccc(S(=O)(=O)N(C)C)cc1-n1c(SCC(=O)Nc2ccc(F)cc2)nc2ccccc2c1=O`: the z-score was -0.357.
In the case of `O=C(Nc1ccccc1[N+](=O)[O-])c1nc[nH]c1C(=O)NCCO`, the z-score stood at 0.119.
Regarding `CS/C(=N\S(=O)(=O)c1ccc(N)cc1)NS(=O)(=O)c1cccs1`, the z-score was -0.08.
Regarding `CC(=O)SCC(=O)N=c1sc2cc(F)ccc2n1C`, the z-score was -0.618.
Regarding `COC(=O)c1c(NC(=O)COC(=O)CCc2ccc(S(=O)(=O)N3CCOCC3)cc2)sc2c1CCC2`, the z-score was -0.328.
In turn, `COC(=O)c1cc(OC)c(OC)cc1NC(=O)c1ccoc1C` showed a z-score of 0.388.
`CC1CCN(C(=S)c2cn(Cc3ccccc3F)c3ccccc23)CC1` came in with a z-score of 0.0857.
As for `COc1cccc(-n2c(SCC(=O)N3c4ccccc4CC3C)nnc2-c2ccco2)c1` (stereo not given), the z-score is -1.15.
Compound `CCCCN(CCCNC(=O)C1CCN(S(=O)(=O)N2CCOCC2)CC1)Cc1ccccc1` showed a z-score of 2.95.
On to `CCn1ccc(C(=O)NC2=C(C#N)CCC2)n1`, for which the z-score was -0.208.
Turning to `CCn1cc(Br)c(-c2nc3ccccc3c(=O)n2N)n1`, the z-score is -0.322.
Consider `Cn1c(=O)c2c(nc(NCc3cccnc3)n2Cc2cccc(C(F)(F)F)c2)n(C)c1=O`, for which the z-score is -0.804.
Regarding `CCN(CC)S(=O)(=O)c1ccc(N2CCCCC2)c(NC(=O)/C(C#N)=C/c2ccc(OC)cc2)c1`, the z-score is -0.0436.
For the compound `CN(C)S(=O)(=O)N(Cc1ccc(Br)cc1)c1ccccc1`, the z-score is -0.612.
The figure for `Cc1ccc(Cn2cc(S(=O)(=O)c3ccc(Cl)cc3)c(=O)c3cc(F)ccc32)cc1` is -0.041; for `COc1cccc(NC(=O)COC(=O)CNS(=O)(=O)c2c(F)cccc2F)c1` it is -0.285; for `Cc1ccc(OCC(=O)Nc2ccccc2-c2ccccc2)cc1` it is -0.289.
On to `Cc1ccc(N2C(=O)C(NC(=O)c3ccccc3)(C(F)(F)F)C3=C2CC(C)(C)CC3=O)cc1` (stereo not given), for which the z-score turned out to be 0.115.
Compound `Cc1ccc(NC(=O)COC(=O)/C=C/c2cccs2)cc1` came in with a z-score of 0.41.
`COc1cc(C2C(C(C)=O)=C(O)C(=O)N2c2ccc(C)cc2)ccc1O` (stereo not given) returned a z-score of 0.346.
As to `Cc1ccc2nc(N3CCN(C)CC3)c(C#N)cc2c1`, the z-score was -1.52.
Turning to `CC(C)CC(OC(=O)c1cccs1)C(=O)NCc1ccco1` (stereo not given), the z-score was -0.0958.
Turning to `Cc1ccc(S(=O)(=O)NNC(=O)C(=O)NNc2ccccn2)cc1`, the z-score worked out at 0.262.
The same measure for `CC(c1ccccc1)N1CC(C(=O)N2CCN(c3ccccc3)CC2)CC1=O` (stereo not given): 0.0304.
As for `COC(=O)[C@@H](NC(=O)NC1CCCc2ccccc21)C(C)C` (stereo not given in full), the z-score amounted to 0.54.
Consider `C=CCn1c(Cc2csc(N)n2)nnc1SCC(=O)Nc1ccccc1C(F)(F)F`, for which the z-score was -0.19.
The same measure for `Cc1nnc(N/N=C/c2cc([N+](=O)[O-])c(N3CCC(C)CC3)cc2N2CCC(C)CC2)n1N`: 2.68; for `CC1CCc2c(sc(NC(=O)Cn3nc(C(F)(F)F)c4c3CCCCC4)c2C#N)C1` (stereo not given): -0.198.
For `O=C(Nc1cccc(Cl)c1)Nc1nc(-c2ccc(Cl)cc2)cs1`, the z-score was -0.494.
For `O=C(O)c1ccc(S(=O)(=O)c2ccccc2)cc1`, the z-score came to 0.0716.
The same measure for `Cc1cc(C)c(NC(=O)CN(C2CCCCC2)C2CCCCC2)c(C)c1`: -0.05; for `COC(=O)c1sc(N)c(C(=O)OC)c1COC(=O)[C@@H](NS(=O)(=O)c1cccc(Cl)c1)C(C)C`: -0.0185.
The compound `N#Cc1nc(-c2ccco2)oc1N1CCOCC1` had a z-score of 0.925.
`CCOC(=O)c1cnn2cc(-c3[nH]ncc3[N+](=O)[O-])cnc12`: the z-score is -0.273.
The same measure for `O=C(Oc1cc(-c2ccccc2)no1)c1cccc(C(F)(F)F)c1`: -0.626; for `CC(C)OC(=O)c1ccc(NC(=O)c2ccco2)cc1`: 1.5.
Regarding `CC(CC(=O)NCC1CCCO1)c1ccccc1` (stereo not given), the z-score was -0.159.
Take `O=C(CS(=O)(=O)c1c[nH]c2ccccc12)N1CCCc2ccccc21`: the z-score is -0.0477.
The figure for `CC(=O)N1CCN(S(=O)(=O)c2ccc(C)cc2)C1C(C)C` (stereo not given) is -0.000634; for `Cc1cc(C)n(-c2ccc(C(=O)Nc3cccc(S(=O)(=O)N(C)C)c3)cc2)n1` it is -0.289.
Take `CCCn1nc2cc(C(=O)NCCCCc3ccccc3)ccc2c1OCC`: the z-score was -0.11.
In turn, `CN(C)c1nc(C(=O)OCCO)nc(N(C)C)n1` displayed a z-score of 0.0154.
With `Cc1cc(-n2nc(C)cc2C)n2nc(C)c(-c3ccccc3)c2n1`, the z-score was -0.828.
The figure for `Cc1nn(-c2ccccc2)c(Cl)c1/C=N/NC(=O)c1cccc(S(=O)(=O)N2CCCC2)c1` is -0.295; for `N/C(=N\OC(=O)c1cc(-c2ccccc2)nc2ccccc12)c1ccncc1` it is 0.337.
Compound `COc1cc(CNC2CCCCCC2)cc(OC)c1O` had a z-score of 0.176.
The figure for `COc1ccc(S(=O)(=O)N(C)CC(=O)O)c2ccccc12` is 0.343; for `CCOC(=O)c1sc(NC(=O)C2CCCO2)c(C(=O)OC)c1C` (stereo not given) it is 0.0155.
Take `Cc1cc(C)cc(Oc2ccccc2C=O)c1`: the z-score is -0.314.
In the case of `Cc1ccc(S(=O)(=O)NCc2ccc(C(=O)N3CCc4ccccc4C3)cc2)cc1`, the z-score was -0.264.
Regarding `C=C(C)CN(CC)c1nc(N)c(C#N)c(CC#N)c1C#N`, the z-score is 0.635.
`Cc1ccc(-n2nnnc2SCc2nc3sc(C)c(C)c3c(=O)[nH]2)cc1`: the z-score was -0.532.
Regarding `CCCCC1(O)CC(C(F)(F)F)=NN1C(=O)COc1ccccc1` (stereo not given), the z-score came out at 0.45.
With `COc1ccc(N2CCN(c3oc(Cc4cccc5ccccc45)nc3C#N)CC2)cc1`, the z-score came out at 0.294.
Regarding `Cc1ncc([N+](=O)[O-])n1CC(=O)NC1CCCCC1`, the z-score is -0.154.
Take `COc1ccc2c(C)cc(=O)[nH]c2c1`: the z-score was -0.159.
For the compound `COc1ccc(S(=O)(=O)NNC(=O)c2cc3cc4ccccc4nc3s2)cc1`, the z-score was -2.35.
For the compound `Cc1ccc(S(=O)(=O)Nc2cc(Cl)c(O)cc2C)cc1`, the z-score came out at 0.213.
On to `COCC(=O)Nc1cccc2ccccc12`, for which the z-score is 0.3.
Compound `CCOc1ccc(-c2nc(-c3ccccc3)no2)cc1OCC` gave a z-score of 1.62.
The same measure for `COC(=O)COc1ccc(S(=O)(=O)NCCC2=CCCCC2)cc1Cl`: -0.401; for `COc1cccc(C(C)NC(=O)Nc2cccc(C(F)(F)F)c2)c1` (stereo not given): -0.856; for `S=C(Nc1ccc(Cl)c(Cl)c1)N1CCOCC1`: 0.263.
Consider `COc1cccc(CN(C)C(=O)c2ccc(S(=O)(=O)N3CCCC3)cc2)c1OC`, for which the z-score was -0.0592.
The figure for `COc1ccc(S(=O)(=O)NCc2csc(-c3cccnc3)n2)cc1` is -0.168; for `Cc1cccc(/C=N\Nc2nnc(-c3ccccc3)c(=O)[nH]2)c1` it is -0.000414; for `Cc1ccc(S(=O)(=O)NNC(=O)c2cc3cc4ccccc4nc3s2)cc1` it is 0.00914.
Consider `C(#CCN1CCOCC1)COCCOC(c1ccccc1)c1ccccc1`, for which the z-score is -0.257.
For the compound `S=C(NCc1ccc(Cl)cc1)NC12CC3CC(CC(C3)C1)C2`, the z-score turned out to be 0.029.
Compound `CCOC(=O)c1c(N)ssc1=S` gave a z-score of 0.129.
On to `CNCCCCOc1ccccc1-c1ccccc1`, for which the z-score was -0.0928.
